Results as given in the supplement of paper PMC11876631.
Substitutions are numbered along the chain they refer to. Names and notes keep the numbering of the source. ± gives the standard deviation of the averaged measurements. Laboratory Escherichia coli strains with one amino-acid change in an essential protein, pooled on minimal glucose agar with carbenicillin or gentamicin at twice the control MIC (plus kanamycin and chloramphenicol for the plasmids), 48 h. Fold change of barcode share against drug-free plates; higher = less susceptible. Active = above 20 in both replicates (the paper's putatively resistant). '<' = one read or none on drug, '>' = one read or none on a drug-free plate. Shares are relative, so most strains fall below 1 when a few take over. Listed are strains with at least 15 reads on both drug-free plates, and hits; most hits rest on fewer reference reads. Replicate rank correlation about 0.5. Edits are read from barcodes.

B1: metB V211A (protein)
chain: MTRKQATIAVRSGLNDDEQYGCVVPPIHLSSTYNFTGFNEPRAHDYSRRGNPTRDVVQRALAELEGGAGAVLTNTGMSAIHLVTTVFLKPGDLLVAPHDCYGGSYRLFDSLAKRGCYRVLFVDQGDEQALRAALAEKPKLVLVESPSNPLLRVVDIAKICHLAREVGAVSVVDNTFLSPALQNPLALGADLVLHSCTKYLNGHSDVVAGVAIAKDPDVVTELAWWANNIGVTGGAFDSYLLLRGLRTLVPRMELAQRNAQAIVKYLQTQPLVKKLYHPSLPENQGHEIAARQQKGFGAMLSFELDGDEQTLRRFLGGLSLFTLAESLGGVESLISHAATMTHAGMAPEARAAAGISETLLRISTGIEDGEDLIADLENGFRAANKG
B2: metB V211W (protein)
chain: B1 chain with A211W
B3: aroD M203W (protein)
chain: MKTVTVKDLVIGTGAPKIIVSLMAKDIASVKSEALAYREADFDILEWRVDHYADLSNVESVMAAAKILRETMPEKPLLFTFRSAKEGGEQAISTEAYIALNRAAIDSGLVDMIDLELFTGDDQVKETVAYAHAHDVKVVMSNHDFHKTPEAEEIIARLRKMQSFDADIPKIALMPQSTSDVLTLLAATLEMQEQYADRPIITWSMAKTGVISRLAGEVFGSAATFGAVKKASAPGQISVNDLRTVLTILHQA
B4: aroD L78W (protein)
chain: B3 chain with L78W, W203M
B5: aroD L78A (protein)
chain: B3 chain with L78A, W203M
B6: aroD M203Q (protein)
chain: B3 chain with W203Q
B7: metA F140A (protein)
chain: MPIRVPDELPAVNFLREENVFVMTTSRASGQEIRPLKVLILNLMPKKIETENQFLRLLSNSPLQVDIQLLRIDSRESRNTPAEHLNNFYCNFEDIQDQNFDGLIVTGAPLGLVEFNDVAYWPQIKQVLEWSKDHVTSTLAVCWAVQAALNILYGIPKQTRTEKLSGVYEHHILHPHALLTRGFDDSFLAPHSRYADFPAALIRDYTDLEILAETEEGDAYLFASKDKRIAFVTGHPEYDAQTLAQEFFRDVEAGLDPDVPYNYFPHNDPQNTPRASWRSHGNLLFTNWLNYYVYQITPYDLRHMNPTLD
B8: metA F140Q (protein)
chain: B7 chain with A140Q
B9: metA V141A (protein)
chain: B7 chain with A140F, V141A
B10: metA V141Q (protein)
chain: B7 chain with A140F, V141Q
B11: metA F285W (protein)
chain: B7 chain with A140F, F285W
B12: metA F140P (protein)
chain: B7 chain with A140P
B13: metA F140W (protein)
chain: B7 chain with A140W
B14: metA F285A (protein)
chain: B7 chain with A140F, F285A
B15: metA V141W (protein)
chain: B7 chain with A140F, V141W

Each protein was assayed against Escherichia coli (laboratory strain) (assay: barcode share on antibiotic plates over drug-free plates; higher = less susceptible). Settings: antibiotic: carbenicillin; 2× MIC (3.1 µg/mL).
Protocol: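 A pool of E. coli strains, each edited to carry one amino-acid change in an essential protein, was grown for 48 h on minimal glucose agar with or without antibiotic; strain barcodes were sequenced; mean of two replicates.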
With B1 the “fold change of barcode share” value was 0.427 ± 0.23. For B2, the “fold change of barcode share” value was 0.402 ± 0.12. For B3, the “fold change of barcode share” value was 0.412 ± 0.12. In the case of B4, the “fold change of barcode share” value is reported as 0.239 ± 0.11. In the case of B5, the “fold change of barcode share” value is reported as 0.325 ± 0.11. B6 was tested, and the “fold change of barcode share” value was 0.363 ± 0.23. For B7, the “fold change of barcode share” value was 0.439 ± 0.11. With B8 the “fold change of barcode share” value was 0.732 ± 0.2. With B9 the “fold change of barcode share” value was 0.335 ± 0.096. B10 was tested, and the “fold change of barcode share” value was 0.718 ± 0.048. In the case of B11, the “fold change of barcode share” value is reported as 0.348 ± 0.074. In the case of B12, the “fold change of barcode share” value is reported as 0.626 ± 0.25. In the case of B13, the “fold change of barcode share” value is reported as 1.52 ± 0.22. In the case of B14, the “fold change of barcode share” value is reported as 0.263 ± 0.021. B15 was tested, and the “fold change of barcode share” value was 1.15 ± 0.44.

Same assay, conditions: antibiotic: gentamicin; 2× MIC (MIC 0.45 µg/mL)
For B1, the “fold change of barcode share” value was 0.00409 ± 0.00065. In the case of B2, the “fold change of barcode share” value is reported as 0.00411 ± 0.0038. For B3, the “fold change of barcode share” value was under 0.00889. In the case of B4, the “fold change of barcode share” value is reported as under 0.0084. For B5, the “fold change of barcode share” value was under 0.00633. With B6 the “fold change of barcode share” value was 0.0127 ± 0.0031. In the case of B7, the “fold change of barcode share” value is reported as 0.0145 ± 0.014. B9 was tested, and the “fold change of barcode share” value was under 0.00233. In the case of B10, the “fold change of barcode share” value is reported as 0.0128 ± 0.0081. In the case of B13, the “fold change of barcode share” value is reported as 0.0276 ± 0.023. With B14 the “fold change of barcode share” value was under 0.0105.
